Measured values: the supplement of paper PMC12217912
The other results are listed elsewhere or left out. The full chains were built here from the parent and the listed change. Inactive controls read about 0.05.

B1: TEV protease; numbered along this chain (parent)
chain: MGESLFKGPRDYNPISSSICHLTNESDGHTTSLYGIGFGPFIITNKHLFRRNNGTLVVQSLHGVFKVKDTTTLQQHLVDGRDMIIIRMPKDFPPFPQKLKFREPQREERICLVTTNFQTKSMSSMVSDTSCTFPSGDGIFWKHWIQTKDGQCGSPLVSTRDGFIVGIHSASNFTNTNNYFTSVPKNFMELLTNQEAQQWVSGWRLNADSVLWGGHKVFMVKPEEPFQPVKEATQL

Variants of: B1
Test: raw area under fraction-flipped curve 0-4 h after induction (AUC4h, not background-subtracted), DNA-recorder readout of cleavage of the substrate (dimensionless); higher = more cleavage of the substrate by the protease variant
Settings: temperature: 34 °C; time window: 0-4 h after rhamnose induction
Method: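 In vivo DNA recorder in E. coli TOP10(DE3) ΔrhaA at 34 °C. Each TEVp single-site mutant (parent TEVp 0) is paired with a single-site variant of the 7-mer TEVs (canonical ENLYFQ|S). The substrate sits between flexible linkers in a Bxb1-sfGFP-TEVs-SsrA fusion, so cleavage stabilises Bxb1 and speeds flipping of a recombination array, read by NGS. The value is the raw area under the fraction-flipped curve over 0-4 h after rhamnose induction (AUC4h), with ≥20 reads per time point. It is not background-subtracted; inactive controls average about 0.047.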
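Note: Bxb1 expression induced with 0.2% (w/v) L-rhamnose at OD600 near 0.5, cultures sampled hourly, flipped fraction per protease–substrate barcode pair counted by paired-end Illumina sequencing.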

Variant	area with substrate ENLYFAS	area with substrate ENLYFCS	area with substrate ENLYFES	area with substrate ENLYFFS	area with substrate ENLYFHS	area with substrate ENLYFIS	area with substrate ENLYFRS	area with substrate ENLYFTS	area with substrate ENLYFDS	area with substrate ENLYFLS
Q59N	0.0632	0.0543	0.0596	0.0709	0.0702	0.0627	0.037	0.0572		
Q59H	0.0402	0.0544	0.0777	0.0751		0.0415	0.0508		0.0762	0.06
H76T	0.0579	0.0515				0.0761				
H76F	0.0468	0.0566	0.0664	0.0791	0.0701	0.0594		0.0595		
F92G	0.0775	0.0528						0.0526	0.0556	
F92V	0.0512		0.0618		0.0651	0.0651	0.0375	0.0639		
F92K	0.0523		0.0533	0.0641		0.0563				
F92N	0.0401	0.0641	0.0465			0.0512	0.0546	0.0554		
D82V	0.0481	0.0469	0.0586	0.0344		0.0495			0.0831	
D79Q	0.057									
D79E	0.0546	0.0748				0.0604				0.0652
P93C	0.0465				0.0641					
L61T	0.0729		0.0536		0.0717	0.0716				
I110F	0.057	0.0557		0.0809	0.0686	0.0444		0.0365		0.0315
I84N	0.0474				0.0632	0.0687				
P89V	0.0528			0.0624				0.0516		0.0493

Variant	area with substrate ENLYFAS	area with substrate ENLYFCS	area with substrate ENLYFES	area with substrate ENLYFFS	area with substrate ENLYFHS	area with substrate ENLYFIS	area with substrate ENLYFRS	area with substrate ENLYFTS	area with substrate ENLYFDS	area with substrate ENLYFLS
P89A	0.079		0.068	0.0436	0.0567	0.0528		0.0624		
T44M	0.0402	0.0483	0.0521	0.0565	0.0369	0.0454		0.0438	0.0576	
V78E	0.047	0.0348	0.0532	0.0663	0.0533	0.0431		0.0506	0.065	0.0553
V78D	0.049	0.0568	0.0553	0.0569	0.0489	0.052	0.0357			
Q118C	0.0684					0.0663				
Q118L	0.0601		0.0585	0.057	0.0548	0.0734		0.0432		
K66Y	0.0508		0.0669	0.0637	0.0682	0.0587	0.0644	0.0787	0.0618	
P94N	0.0555			0.06		0.0543	0.0577			0.0587
E103M	0.0517		0.0484	0.0684		0.0588		0.0522	0.0692	
E103D	0.0711				0.0618	0.0525	0.0607		0.0623	0.0936
E103S	0.0454					0.0515	0.0442			
E103I	0.0596	0.0594	0.0367			0.0543		0.067		0.0627
L33D	0.0656		0.0787	0.0583	0.0599	0.0555	0.0561	0.0711	0.0673	
M83R	0.0473	0.0373			0.0509	0.0502		0.0546		
M83E	0.0535	0.0314	0.0677	0.0532				0.0672	0.0373	
T115K	0.0646		0.0638	0.0672		0.0555	0.0674	0.0541	0.0533	0.0563

Same assay, conditions: temperature: 34 °C; time window: 0-4 h after rhamnose induction

Variant	area with substrate ENLYFMS	area with substrate ENLYFNS	area with substrate ENLYFPS	area with substrate ENLYFSS	area with substrate ENLYFVS	area with substrate ENLYFWS	area with substrate ENLYFYS	area with substrate ENLYFKS	area with substrate ENLYFGS
Q59H	0.069	0.0612	0.055	0.0669	0.0454	0.0717	0.052		
H76T	0.0491	0.0466	0.06		0.07	0.0646	0.0526		
H76F	0.0758	0.0967	0.0541		0.0584	0.0708		0.0632	
F92G			0.0592				0.0513		
F92V		0.0541	0.0597		0.0478				0.0669
F92K								0.0572	
F92N	0.0587		0.0589	0.0619		0.0499		0.0445	
D82V	0.0535							0.0791	0.0331
D79Q					0.0567	0.112	0.0553	0.057	
D79E						0.0235			0.0564
P93C	0.0618			0.073	0.0392	0.0282		0.0455	
L61T	0.0674	0.0982	0.0665				0.0589	0.0816	
I110F	0.051	0.0642	0.0601	0.0743	0.0546		0.0566	0.0529	0.0555
I84N		0.0532							
P89V	0.0476		0.0432			0.0586		0.036	0.0574
P89A	0.0388								

Variant	area with substrate ENLYFMS	area with substrate ENLYFNS	area with substrate ENLYFPS	area with substrate ENLYFSS	area with substrate ENLYFVS	area with substrate ENLYFWS	area with substrate ENLYFYS	area with substrate ENLYFKS	area with substrate ENLYFGS
T44M		0.0551	0.0581	0.0498		0.0459	0.0651	0.0657	
V78E	0.0519	0.0635	0.0406	0.0652	0.0489		0.053	0.0569	0.0616
V78D	0.0614	0.0503	0.0571	0.0558		0.0569	0.0577	0.0617	0.0618
Q118C			0.0576				0.0472		
Q118L	0.0595				0.0102		0.0496		
K66Y	0.0751	0.0536	0.0374	0.0475	0.0672	0.0727	0.0568		0.065
P94N	0.0777						0.0647	0.059	0.0632
E103M	0.0545	0.0671	0.0457	0.0588			0.0591	0.0498	
E103D	0.0646	0.0628	0.0561			0.0071		0.0611	
E103S		0.0443	0.0589						
E103I	0.0726	0.0632	0.0517	0.0553	0.0571	0.0647	0.0557		
L33D	0.0619	0.0486	0.057	0.0497	0.0494	0.0523	0.0545	0.0737	
M83R			0.0498		0.0485		0.0385	0.0389	
M83E	0.0495	0.0581	0.0494	0.0512			0.0624	0.0787	
T115K	0.0681	0.0654	0.061	0.072	0.0481	0.0647		0.0779	0.063
